The other results are listed elsewhere or left out. The list includes weakly bound sequences.
These sequences were tested against MaxL homodimer (UniProt P61244) (assay: universal protein-binding microarray (PBM)). Conditions: PBS-based mixture, 10 nM His-tagged protein dimer, 2% milk, 200 ng/uL BSA, 50 ng/uL salmon testes DNA, 0.02% TX-100; detection with Alexa 488 anti-His …; high values mean tight binding; most listed sequences are background and not binding sites; double strand, one strand shown.
Sequence of UniProt P61244 (P61244 whole entry): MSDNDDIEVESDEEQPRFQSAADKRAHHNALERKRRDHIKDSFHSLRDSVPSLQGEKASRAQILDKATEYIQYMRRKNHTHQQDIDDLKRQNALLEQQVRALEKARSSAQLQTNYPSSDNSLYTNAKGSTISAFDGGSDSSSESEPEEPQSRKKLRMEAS

Sequence | binding signal (normalized occupancy)
AGAGATCA | 0.0773
GCCCTGCC | 0.0693
GGAACCTA | 0.0727
CTTAGAAC | 0.0717
AGTGCGAC | 0.0717
ATGGGGTG | 0.0884
CCGTACAG | 0.0698
AGCGATTA | 0.0695
TCGTGAAA | 0.0742
AATTGCTG | 0.0737
CCGCGCAA | 0.0729
CCTGCGAC | 0.076
GAAGGGTC | 0.0705
GATCCGGA | 0.0733
GTTGGCCA | 0.0757
AATACGGT | 0.0743
AATTGACA | 0.0733
GACGCGGC | 0.0758
TACAACGA | 0.0759
ACGCATGA | 0.102
CCCCGTCG | 0.0768
ACTTTTTG | 0.0733

Sequence | binding signal (normalized occupancy)
CATTTGAG | 0.0913
AGGTTTAG | 0.0686
AGGGCCTA | 0.0723
CCTTCAAG | 0.072
AATCGCGC | 0.071
AAATATCA | 0.0808
AAGCCGCT | 0.0662
CCCCGGTA | 0.0743
CGGTATAC | 0.0811
CTTGCTAC | 0.0726
AGTGCACG | 0.0853
CCACAGCC | 0.0702
AGCGCTAT | 0.0678
ATCCGTCC | 0.0736
CGCCAGTA | 0.0708
CATGGCGG | 0.0909
ACAGCAGC | 0.0714
AGGGGCTG | 0.0775
ACCCGTCC | 0.0729
ACTTAACC | 0.074
AGAACCGG | 0.0734
GCCCTGCA | 0.0761

Sequence | binding signal (normalized occupancy)
CCACGGGC | 0.076
TATCAGGA | 0.0735
AACAACGA | 0.075
ACGCTTTC | 0.0752
GAGCCTTA | 0.0709
GCCGCCCA | 0.0745
TTCGCAAA | 0.0733
CCCGTCTA | 0.0728
TCCGGGAA | 0.0701
CTGCTCCC | 0.0741
ACTTTAAA | 0.0719
AGTCGACT | 0.079
CCGCACCC | 0.078
CAACCCTC | 0.0777
AGGCATCG | 0.0725
AAGCACTC | 0.0743
AATCGAAT | 0.0782
CTCGAGTA | 0.0758
AAACGCTC | 0.0724
ATCGACTG | 0.0693
ATGGACAG | 0.0816
TGTTAACA | 0.0864

Sequence | binding signal (normalized occupancy)
GTCCCCAC | 0.0823
AAACCGAC | 0.0727
AAGCAGAG | 0.0743
AGCAAAGC | 0.0681
AGACCCCC | 0.0781
AAAAGTCA | 0.0711
CTTGCCAC | 0.0767
ACCCGTGG | 0.082
CGGCATAA | 0.0746
CAGTACTA | 0.0775
GAGATGGA | 0.0798
CGGCCAGA | 0.0677
CTCGTTCA | 0.0752
AATGCAGA | 0.0752
CTAAGTTC | 0.0701
GGCCATAA | 0.0826
CTACCATA | 0.084
TCGCCAGA | 0.0685
AAGCGGGG | 0.0708
GGAATTAC | 0.0744
GAGAAGCA | 0.0753
CGAAGTCA | 0.0731

Sequence | binding signal (normalized occupancy)
GTGGTTCA | 0.0838
CGCCAGCC | 0.0716
CGTCGCCC | 0.0699
GACACTAA | 0.0759
GGCACGAC | 0.0781
ACGTAACA | 0.0838
CCGGACGG | 0.0638
AGGTAGGC | 0.0738
CATTTTTC | 0.0786
CTATTTAA | 0.0752
CTGATGCA | 0.0796
CATGGGCG | 0.0822
ACATCCGC | 0.0795
CAACGATC | 0.0729
AGCAGACC | 0.0712
ACACTCCA | 0.0787
CCCATACA | 0.0836
CGTGAAAA | 0.0792
AGTCTTAC | 0.0768
ACATTTTC | 0.0796
CACTTCCC | 0.0778
